62 sequences from the supplement of paper PMC10681739 can be followed below.

In all, about 4,100 sequences were measured (“arbitrary fluorescence units”: median about 780, highest 2% from about 22,000 on). The list shows a part of the results.

For this test, the target named is T1, ETS1 (UniProt P14921).
T1 sequence: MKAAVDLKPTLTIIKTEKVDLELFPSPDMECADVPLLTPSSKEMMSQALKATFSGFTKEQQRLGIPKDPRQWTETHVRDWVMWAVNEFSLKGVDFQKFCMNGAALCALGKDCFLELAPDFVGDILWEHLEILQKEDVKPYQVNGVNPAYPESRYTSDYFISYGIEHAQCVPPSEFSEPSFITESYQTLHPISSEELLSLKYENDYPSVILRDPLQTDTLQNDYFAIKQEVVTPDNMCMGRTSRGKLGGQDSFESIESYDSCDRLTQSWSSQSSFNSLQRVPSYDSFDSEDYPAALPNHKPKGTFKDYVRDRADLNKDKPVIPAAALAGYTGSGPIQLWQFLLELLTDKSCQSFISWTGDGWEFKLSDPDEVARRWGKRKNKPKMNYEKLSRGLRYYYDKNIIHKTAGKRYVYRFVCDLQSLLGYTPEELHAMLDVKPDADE
The test can be described thus: ETS1 binding intensity (PBM fluorescence), ETS1 alone (arbitrary fluorescence units); higher = stronger binding. The conditions noted are these: ETS1 concentration 1 nM; RUNX1 concentration 0 nM. In short, it runs like this:
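Double-stranded Agilent 4 × 180k arrays held 36-bp genomic probes whose RUNX1 partner site was mutated, and these were incubated with 1 nM full-length recombinant human ETS1 in the absence of RUNX1 under standard PBM protocols. Bound protein was labelled with anti-ETS1 antibody (Cell Signaling Technology 14069) plus an Alexa488-conjugated secondary and read on a GenePix 4400A, with four spots printed per sequence. Binding level is reported as raw spot fluorescence intensity summarised over replicate spots.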
On to GGGGCAGGAAGTGGAGGTTTGAAGTGCTTTAGAGTA, for which the ETS1 binding intensity worked out at 7390.

As to ACGATCCAACAGCATTCACCCCGGAAGCCGCTTCCA, the ETS1 binding intensity was found to be 1340.

TGACATGGCTTCCGCCTTGGGCTTTGGGGTCTCCCA: the ETS1 binding intensity turned out to be 4230.

In turn, CGGCCGCCCGGCTTCCTCTCCCGCTGCAGCCCTGGC yielded an ETS1 binding intensity of 1680.

For the sequence TTGGTCAGGATGTGGCTGAAGAAGTCACAAGAAAAA, the ETS1 binding intensity was 1090.

The sequence AGGGAGGTAGTGCTGTAGAATTTTCCGCTATGGGTC showed an ETS1 binding intensity of 502.

With AGGGTGTTAGGGCCCCAAGGGCAGGAAGACCAAGTG, the ETS1 binding intensity was 405.

For the sequence ACCATAAGGACCGGAAGCAGAGACAACACTGGTGCT, the ETS1 binding intensity came out at 10400.

CAGACCAGCCCAGGAAACAAGGAACCCCAAAGCCAC had an ETS1 binding intensity of 538.

For the sequence GGAGAGCTCCTGCAGTCCAGCCGGATGACTGATGAG, the ETS1 binding intensity stood at 365.

CCATGTTTCCCGCTGGCAGTCGCGTGGGAAGTGACG yielded an ETS1 binding intensity of 814.

TGTTGTAGGGGAAGTGGTGTGTCGTATTCCTGGGGA showed an ETS1 binding intensity of 660.

In turn, AACCCGGAAGTGGACACGGAGCTCGGCTGCAGCTCC registered an ETS1 binding intensity of 12400.

Sequence CCTCTTATACGACACTGTGGGAAGCAGGAAGGGTGC had an ETS1 binding intensity of 536.

GGGCGCGCTTGCCGGGGAACGCGTTTCCCGCCGCAC yielded an ETS1 binding intensity of 365.

Sequence GGCACTCCGCGCCGGGGTAGGAACTTCCTCCCACCT yielded an ETS1 binding intensity of 585.

Sequence CACGTCCGTCCCCTACAACGCGGCCGTCCGCGCGGA had an ETS1 binding intensity of 3990.

In turn, CTGGGGTTGGGCTGTGTAGGCGCGGATTTCCTGGCT displayed an ETS1 binding intensity of 500.

The sequence CTCGGGATTTGGGGTCCACCCGGCGGAACTCGCGGC yielded an ETS1 binding intensity of 299.

The sequence ACCCCACCTACGGCCACCTCATCCTGAGTCTGAGAG had an ETS1 binding intensity of 532.

In the case of AGGTCTTGTAGCTCATTTTGTACCCACTTCCTGGGC, the ETS1 binding intensity came out at 630.

ATTTTGGGGTTTAACTAGATATTATCTATTTCCGGA showed an ETS1 binding intensity of 1780.

Turning to GCACAGGCCGGAAGGAAAAGGGTTCTGGGGCTCATT, the ETS1 binding intensity stood at 1620.

CAGGGATTCCGGCTGAGTGCGGCCCCCTCAGCCTCC: the ETS1 binding intensity was found to be 606.

In turn, AAGCTGCGCGTTCCATGGCGCGGATGCCGGGCCCTG gave an ETS1 binding intensity of 279.

Sequence GACTATGTGCTTCCGGTCTCCAATACCCCAGGAGGG registered an ETS1 binding intensity of 19600.

As for GTCCCCGACTTCCGCTCTCGGTTGGTAGTTGGCTTT, the ETS1 binding intensity was determined as 14600.

TCCCCTGTCTTCCGGAGGCTGGGGCGCAGCGGCGCA registered an ETS1 binding intensity of 3430.

AAGTGCAGACACCAGACACCCCACAGGAAGTCAAGT yielded an ETS1 binding intensity of 1050.

CGGCCTCTTCCGCCAAAACTCCGGCCCGCTGTCCCG gave an ETS1 binding intensity of 2790.

The sequence GTTCAGCAGGAAGTGGATGTGGATGTGTGCTTGCCA displayed an ETS1 binding intensity of 4140.

In turn, ACTGTAGGCGCAGGCGCGGCTGCCGCTTCCTCTTTA displayed an ETS1 binding intensity of 457.

GTGCTTCCTTCAGTCTCACCTCCCAGCGGCGTGGGC: the ETS1 binding intensity is 1400.

Sequence GTTCTTATCCTGTGGCTCGTTTGGGGTTACTGACAT displayed an ETS1 binding intensity of 1420.

On to CGTTTCCTGTCTGGGACTGCGCCCACGCGATCACGT, for which the ETS1 binding intensity stood at 38800.

With CGAGCAGCGCTTGCCGCGGGGGCGGAACAAACAGGC, the ETS1 binding intensity worked out at 377.

Turning to TTATCTGGTAGGTGAGGTAAAGAAGGAAGTGGAGAA, the ETS1 binding intensity was 670.

Regarding TCCTCCCACGGGAAGTGCCGTAGGACCCCAGCCCGA, the ETS1 binding intensity was 959.

Take ATCCCGGACGGTGCACCGACCCGAGGCACACGGCAC: the ETS1 binding intensity stood at 348.

For the sequence GGCAGCGCTTTTCGCTGTCGGAACGGAAGGGAAGCA, the ETS1 binding intensity turned out to be 413.

CAGGTCACCCCAGTCCCCACCACTTCCTGTTATTGT came in with an ETS1 binding intensity of 3940.

In turn, CGGCGCCTACGGCCCACCCCTCCCTTTCCGGTCCCC gave an ETS1 binding intensity of 1140.

Consider TTGGGGCCCCAGAGAAAGTCAGCGGAACGTGAAATG, for which the ETS1 binding intensity worked out at 337.

AAGCCACTTCCTGGTGACCCAGTGATAAACACTTGA: the ETS1 binding intensity came to 12300.

As to CACGTCCTACGGCCTCAGCCGCCTCTTCCGCCATCC, the ETS1 binding intensity is 1230.

Sequence AAAACCCGGGAATCGCCGCGAACCGGAACCGCCTTC returned an ETS1 binding intensity of 503.

Sequence AGCAACAGGAAAGAACAGCCTGAGCACAGCAGCCAC returned an ETS1 binding intensity of 778.

TGTGTAACTTCCTGGCTTTGGTGCTTTCCCCCTCCT showed an ETS1 binding intensity of 4640.

Take TGTCGCCAGCGCTGGATGGAGCCTTGCCGGATCTCC: the ETS1 binding intensity came out at 316.

On to CAGCCAGCCAGGAAGCAGGGGCTGAGGGGCTGACAG, for which the ETS1 binding intensity is 860.

GCAACTGAACAGGAAACTAAAAAACCCCAACACTTA came in with an ETS1 binding intensity of 2240.

GGGGTCAGGAAATGGGTGTGCCGAGGGTAAGGCGCT returned an ETS1 binding intensity of 2060.

For GAAGTGAGTTAAGGAGCTGCACTGCTTCCTGCCCCC, the ETS1 binding intensity stood at 826.

CTGCGCTTCCGCGGCGCCGCTCTGGCCGCGCGAGGG: the ETS1 binding intensity was 1530.

The sequence CTGATGGCTGGGGTTCAAACTTCCCCTGGGTGACCC had an ETS1 binding intensity of 506.

In turn, CTCACAACTCGCGTCCGGCGGAGACCCCAATTCCCG gave an ETS1 binding intensity of 1260.

For the sequence CCGCCACCGAAGCTAAAACTTCAGGCGCCGGAACCG, the ETS1 binding intensity is 408.

GAAGAAATGTCGCTATCATCTTCCGTCCTTCACCGA showed an ETS1 binding intensity of 800.

With GGCAGGAAAGAGCTGATGCATTTCAACAGCAGCCTG, the ETS1 binding intensity turned out to be 477.

CAGGGGCTACGCGCGCAGGACGCTGTTTCCTGCCCC displayed an ETS1 binding intensity of 849.

Take GCGGAGGGAAGCGGAAATACTTGCAGTGGGGGCGAC: the ETS1 binding intensity was 3700.

Sequence AGAAGCCCGGAATGGACGCGAAAGTGAGCACGCGAA yielded an ETS1 binding intensity of 380.
